Experimental data from PubChem BioAssay AID1030 (National Center for Advancing Translational Sciences (NCATS), 2008).
Values joined by “and” are separate entries in the source; they are usually repeats but may differ in a detail not shown here. Equal values may be shown once. Screen size: about 220,000 compounds; about 16,000 (7.3%) were called active. This list was built around the results that the source calls inconclusive (neither active nor inactive); the mix of calls is not that of the screen. Calls come from the whole dose curve; as a rule, active = well fitted inhibition curve with a large enough effect (not every such curve was filed as active); inconclusive = small, poorly fitted or top-dose-only effect, or another doubt; inactive = no such curve, though single readings can be large or run the other way. Potencies beside an inconclusive call are fits to weak or partial responses and may not hold up. Some structures have more than one record in an assay (separate samples or runs), and their calls can disagree.

What follows are compounds tested against Aldehyde dehydrogenase 1A1 (Homo sapiens) (UniProt P00352) (assay: qHTS Assay for Inhibitors of Aldehyde Dehydrogenase 1 (ALDH1A1)). Conditions: Purified ALDH1A1, NADH fluorescence, propionaldehyde substrate; series mostly up to 75.3 µM; activity, negative = inhibition: at the top concentration.
UniProt P00352, sequence (P00352 whole entry, looked up): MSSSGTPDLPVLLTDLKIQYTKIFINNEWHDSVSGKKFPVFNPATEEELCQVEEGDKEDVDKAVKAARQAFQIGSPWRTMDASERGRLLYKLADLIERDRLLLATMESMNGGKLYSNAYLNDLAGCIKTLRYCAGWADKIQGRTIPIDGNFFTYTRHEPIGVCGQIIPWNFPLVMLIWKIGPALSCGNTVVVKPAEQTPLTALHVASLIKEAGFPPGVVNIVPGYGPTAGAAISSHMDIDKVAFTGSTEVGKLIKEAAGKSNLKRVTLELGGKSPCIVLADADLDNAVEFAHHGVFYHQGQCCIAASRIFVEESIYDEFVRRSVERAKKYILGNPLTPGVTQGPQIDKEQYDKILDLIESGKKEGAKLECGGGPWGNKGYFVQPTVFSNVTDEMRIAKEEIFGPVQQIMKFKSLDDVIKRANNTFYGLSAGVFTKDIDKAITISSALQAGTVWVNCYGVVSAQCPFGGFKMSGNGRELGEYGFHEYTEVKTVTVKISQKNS
Potency is the fitted concentration of half-maximal effect; tags give direction and shape of the fitted curve.
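Throughout, for activity, negative = inhibition: plate controls were no enzyme wells and a reference inhibitor.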

Potency, inactive:
COC(=O)C1=CO[C@@H](C)[C@H]2CN3CCc4c([nH]c5ccccc45)[C@@H]3C[C@H]12

Potency, inactive and 22.4 µM (active):
CC/C=C\C/C=C\C/C=C\CCCCCCCCCCCC(=O)O

Potency, active:
Cc1ccccc1N1CC(O)(c2ccccc2)[N+]2=C1SCC2 (stereo not given) 12.6 µM
CC(C)(C)C1CCC(=NNC(=O)c2ccccc2-n2cccc2)CC1 (stereo not given) 5.01 µM
COC(=O)c1c(NC(=O)CN2CCC3(O)CCCCC3C2c2ccc(F)cc2)sc(C)c1C (stereo not given) 25.1 µM
O=C(CN1CCN(S(=O)(=O)c2ccc(Br)cc2)CC1)N/N=C/c1ccc(Cl)c([N+](=O)[O-])c1 20 µM
CNS(=O)(=O)c1cccc(C(=O)OCC(=O)Nc2sc3c(c2C#N)CCCCC3)c1 25.1 µM
CC(C)=NNc1nc(-c2ccc(N3C(=O)CCC3=O)cc2)cs1 11.2 µM
Cc1cn2c(nc1=O)OC1C(O)C(COC(=O)c3ccccc3)OC12 (stereo not given) 3.16 µM
CCOc1ccc(N2C(=O)C(Cl)=C(Nc3ccccc3O)C2=O)cc1 14.1 µM
Cc1ccc(NS(=O)(=O)c2ccc(Br)s2)cc1S(=O)(=O)N1CCOCC1 11.2 µM

Potency, inconclusive:
COc1ccc(/C=C\c2cc(OC)c(OC)cc2CC[N+](C)(C)C)cc1OC 31.6 µM [inhibitor, partial curve]
Cc1cc(C)n(C(=O)CCC(=O)NCc2ccccc2)n1 0.251 µM [inhibitor, full curve, poor fit]
N=c1c2c(-c3ccccc3)c(-c3ccccc3)n(Cc3ccco3)c2ncn1Cc1ccccc1 0.891 µM [inhibitor, full curve]
Cc1ccc(/C=C/C(=O)OCC(=O)N2CC(=O)Nc3ccccc32)o1 39.8 µM [inhibitor, partial curve]
Cc1cccc(C(=O)N2c3ccccc3C(=O)OC2c2ccc3c(c2)OCO3)c1 (stereo not given) 28.2 µM [inhibitor, single point]
COc1ccc(S(=O)(=O)n2ccc(-c3ccc(OCCN(C)c4ccccn4)cc3)n2)cc1 39.8 µM [inhibitor, single point]
O=[N+]([O-])c1ccccc1/C=N/n1c(C(F)(F)F)n[nH]c1=S 35.5 µM [inhibitor, single point]
COC(=O)C(Cc1ccccc1)NC(=O)c1cccc(S(=O)(=O)N(C)C)c1 (stereo not given) 35.5 µM [inhibitor, single point]
CC(=O)c1ccc(NC(=S)Nc2ccc3cn[nH]c3c2)cc1 35.5 µM [inhibitor, single point]
CC(C)OCCCNS(=O)(=O)c1ccc2c(c1)OCCO2 35.5 µM [inhibitor, single point]
O=C1c2sc3nc4c(c(=O)n3c2C(=O)N1c1ccccc1)CCC4 15.8 µM [inhibitor, partial curve]
CC(C)n1c(-c2cccs2)nc2ccccc21 35.5 µM [inhibitor, single point]
COc1ccc(CCNC(=O)COC(=O)/C=C/c2ccc(OCC#N)c(OC)c2)cc1OC 39.8 µM [inhibitor, single point]
CC1CCCCN1c1nnc(NC(=O)Cn2c(=O)oc3ccccc32)s1 (stereo not given) 25.1 µM [inhibitor, single point]
O=C1NC(=O)c2c(NC(=O)C3CCCO3)cccc21 (stereo not given) 22.4 µM [inhibitor, partial curve]
COc1ccc(OC)c(NC(=O)CSc2ncccn2)c1 35.5 µM [inhibitor, single point]
Cc1ccc(/C=C/C(=O)OCC(=O)NCCN2C(=O)CSC2=O)cc1 35.5 µM [inhibitor, single point]
CCOC(=O)Cc1csc(SCC(=O)Nc2sc3c(c2C(N)=O)CCC3)n1 31.6 µM [inhibitor, single point]
NS(=O)(=O)c1ccc(CCNC(=O)COC(=O)/C=C/c2ccccc2Cl)cc1 44.7 µM [inhibitor, single point]
O=C(CSc1nnnn1-c1cccc2c1CCCC2)NC1CCCC1 20 µM [inhibitor, partial curve]
CCCN(CC1CC1)C(=S)NC(=O)C1CC1 39.8 µM [inhibitor, single point]

activity, negative = inhibition, inactive:
CCc1cccc(NS(=O)(=O)c2c(C)n[nH]c2C)c1 2.38%
O=C(CC1NCCc2ccccc21)Nc1ccccc1Cl (stereo not given) 0.754%
Cc1ccc(/C=N/n2c(=O)c(C(C)(C)C)nn3cnnc23)cc1 1.98%
O=C(Nc1ccc(Cl)cc1)Nc1ccc2c(c1)N1CCN=C1S2 5.11%
C=C1C2c3ccccc3C(CC2(C)O[Si](C)(C)C)N1C(=O)OC (stereo not given) 3.08% [at 13.5 µM]
COC(=O)CCC(=O)Nc1cccc(Cl)c1 9.68%
CCCc1nc2sc3c(c2c(=O)[nH]1)CCCC3 0.904%
CCOc1ccccc1NC(=O)C(=O)N/N=C/c1ccc([N+](=O)[O-])cc1 1.72%
Cn1c(SCCOc2ccc(Cl)cc2)nnc1-c1ccncc1 -7.35%
CCOC(=O)c1sc2nc(SC)nc(-c3ccccc3)c2c1N -4.78%
Cc1ccc(-c2nnc(SCC#N)n2N)cc1 -8.7%
O=C(O)c1cncc(C(=O)O)c1 5.33% [at 13.5 µM]
CN1CCN(c2ccc(NC(=O)COc3ccccc3Cl)cc2)CC1 -3.93%
CC1CCc2c(sc(NC(=O)CSc3nc4c(c(C(F)(F)F)n3)CCc3ccccc3-4)c2C(N)=O)C1 (stereo not given) 17%
CC(C)(C)c1ccc(C(CC(=O)O)NC(=O)c2ccccc2F)cc1 (stereo not given) 10.9%
COCCNC(=O)Cn1c(=O)n(CCCCCC(=O)NCc2ccc3c(c2)OCO3)c(=O)c2sccc21 -0.503%
Cc1ccc2[nH]c(O)c(N=NC(=O)CCc3ccccc3)c2c1Br -3.42%
Cc1cccc(C)c1NC(=O)c1cn(-c2ccccc2)nc1-c1ccccc1 11.4%
